Some of the results follow. Values were computed here from the reads of four pooled replicates and scatter widely.
Molecular target: T1, Pho4 (S. cerevisiae) (UniProt P07270)
T1 sequence: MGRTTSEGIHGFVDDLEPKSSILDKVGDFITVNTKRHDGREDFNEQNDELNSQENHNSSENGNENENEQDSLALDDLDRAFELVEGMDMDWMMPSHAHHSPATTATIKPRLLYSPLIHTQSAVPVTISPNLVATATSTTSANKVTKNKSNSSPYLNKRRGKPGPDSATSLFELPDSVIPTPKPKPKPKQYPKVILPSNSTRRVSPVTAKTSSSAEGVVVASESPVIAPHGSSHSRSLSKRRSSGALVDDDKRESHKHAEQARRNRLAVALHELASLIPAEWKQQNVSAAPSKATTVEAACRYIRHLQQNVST
Test: relative binding free energy (BET-seq); higher = weaker binding
Conditions: reference: library average

Row | Sequence | relative binding free energy
1 | TTTGCCACGTGGTCGT | -0.15 kcal/mol
2 | TATTTCACGTGCTGGG | 0.34 kcal/mol
3 | AGGAGCACGTGTGGAG | -0.02 kcal/mol
4 | CGAGTCACGTGATTTT | 0.31 kcal/mol
5 | ACTGGCACGTGTGGAG | -0.03 kcal/mol
6 | GCCGGCACGTGAGTGT | 0.26 kcal/mol
7 | TGCGGCACGTGGGACG | -0.27 kcal/mol
8 | CTGGACACGTGTGGGG | 0.22 kcal/mol
9 | TGGACCACGTGTGTAG | 0 kcal/mol
10 | GTTCACACGTGTGGAT | 0.13 kcal/mol
11 | AAGAGCACGTGTCTTG | 0.02 kcal/mol
12 | AGGTGCACGTGAATAT | 0.15 kcal/mol
13 | TATTGCACGTGGGCTG | -0.21 kcal/mol
14 | TATTGCACGTGCAGGT | -0.14 kcal/mol
15 | CATGGCACGTGGTTTG | -0.24 kcal/mol
16 | GTGTCCACGTGGCGTG | -0.06 kcal/mol
17 | ATTGGCACGTGTGCTC | -0.04 kcal/mol
18 | TAGACCACGTGGTGGT | -0.12 kcal/mol
19 | GACATCACGTGTGTTT | 0.24 kcal/mol
20 | GGTTGCACGTGGACTG | 0.06 kcal/mol
21 | ATTGGCACGTGTCAGG | -0.03 kcal/mol
22 | GAAGGCACGTGGGGTC | -0.26 kcal/mol
23 | CAGTTCACGTGTATTG | 0.26 kcal/mol

Row | Sequence | relative binding free energy
24 | GCATGCACGTGGTTAG | 0.01 kcal/mol
25 | GGTGTCACGTGCAAGG | 0.04 kcal/mol
26 | GTGTGCACGTGGAGCT | -0.13 kcal/mol
27 | GAGATCACGTGAGGAG | 0.48 kcal/mol
28 | AGGATCACGTGACGTT | 0.35 kcal/mol
29 | AAAGACACGTGTGTGG | -0.05 kcal/mol
30 | GTTTACACGTGCGGAG | 0.06 kcal/mol
31 | GGGGGCACGTGGCATG | -0.27 kcal/mol
32 | ATGTGCACGTGGGTCT | -0.19 kcal/mol
33 | TTTGGCACGTGTCGCT | -0.01 kcal/mol
34 | GTTATCACGTGGCGCG | 0.38 kcal/mol
35 | AATTTCACGTGTCATA | 0.27 kcal/mol
36 | GGATTCACGTGGGGAT | 0.41 kcal/mol
37 | TACGTCACGTGTTAAT | 0.07 kcal/mol
38 | ATCTTCACGTGAGTAA | 0.42 kcal/mol
39 | GTCATCACGTGTTTTG | 0.26 kcal/mol
40 | TTCATCACGTGGGTGC | -0.01 kcal/mol
41 | AGTTGCACGTGCTTGT | 0.02 kcal/mol
42 | TTTCTCACGTGTCTGG | 0.2 kcal/mol
43 | GCTTTCACGTGGGGAA | 0.22 kcal/mol
44 | TACTGCACGTGAAGGG | 0.25 kcal/mol
45 | TTATGCACGTGCAGGT | -0.08 kcal/mol
46 | AGAGTCACGTGGGTAA | 0.02 kcal/mol

Row | Sequence | relative binding free energy
47 | TGGGGCACGTGTGTAG | -0.02 kcal/mol
48 | GTAATCACGTGCGGTG | 0.22 kcal/mol
49 | AGGTGCACGTGCGGTA | -0.11 kcal/mol
50 | GGTAGCACGTGTTCTA | -0.06 kcal/mol
51 | AGTTGCACGTGCATGA | -0.12 kcal/mol
52 | TGTGTCACGTGTTTAT | 0.14 kcal/mol
53 | GAGGCCACGTGAGTGT | 0.17 kcal/mol
54 | TAGTGCACGTGTGCAA | 0.15 kcal/mol
55 | GTCGGCACGTGGTTTT | -0.05 kcal/mol
56 | TGTCGCACGTGGAATG | 0.03 kcal/mol
57 | GTATGCACGTGGAGGG | -0.05 kcal/mol
58 | AGATCCACGTGTGGGT | 0.1 kcal/mol
59 | GTTTGCACGTGGTAGT | 0.02 kcal/mol
60 | ATTTCCACGTGTTTAG | 0.09 kcal/mol
61 | TTGAGCACGTGCTTTA | -0.2 kcal/mol
62 | TTGTGCACGTGAAGCT | 0.19 kcal/mol
63 | TGTGGCACGTGTAGGG | 0 kcal/mol
64 | GTTCTCACGTGTTTAA | 0.29 kcal/mol
65 | TATTGCACGTGCTGGT | -0.18 kcal/mol
66 | TTTGGCACGTGGGTCA | -0.18 kcal/mol
67 | TGAGACACGTGGGGAT | -0.08 kcal/mol
68 | GTGGGCACGTGGATGC | -0.02 kcal/mol
69 | CGAGGCACGTGAGGCG | 0.06 kcal/mol

Row | Sequence | relative binding free energy
70 | TGTACCACGTGGTGTA | -0.22 kcal/mol
71 | CTGCGCACGTGGGGTA | -0.35 kcal/mol
72 | AATAACACGTGAGGGG | 0.32 kcal/mol
73 | CGGGCCACGTGATTGG | -0.03 kcal/mol
74 | TTATGCACGTGTTGGG | 0.06 kcal/mol
75 | TCGTTCACGTGGGATC | 0.29 kcal/mol
76 | GTGCACACGTGCAGGT | 0.15 kcal/mol
77 | TTACGCACGTGGTGCT | -0.26 kcal/mol
78 | GTTTACACGTGTATGA | 0.24 kcal/mol
79 | ATTGTCACGTGTTGAG | -0.02 kcal/mol
80 | TTAGTCACGTGAGATA | 0.11 kcal/mol
81 | AGGGGCACGTGAATTG | -0.05 kcal/mol
82 | GTCGGCACGTGCGGTT | -0.12 kcal/mol
83 | TAGGCCACGTGGGAGT | -0.17 kcal/mol
84 | TGTAGCACGTGCAAGT | -0.13 kcal/mol
85 | ATATGCACGTGGTTAC | -0.08 kcal/mol
86 | GGCGGCACGTGGGGCA | -0.19 kcal/mol
87 | AGGAACACGTGGTGTA | -0.13 kcal/mol
88 | TTGATCACGTGGAACT | 0.27 kcal/mol
89 | ATTTACACGTGTAGGT | 0.12 kcal/mol
90 | CAGGTCACGTGTTAGT | 0.27 kcal/mol
91 | GGAGACACGTGGGCTG | -0.08 kcal/mol
92 | CGTTACACGTGGGAAA | 0.2 kcal/mol

Row | Sequence | relative binding free energy
93 | TGAGGCACGTGGCATT | -0.17 kcal/mol
94 | GTTGGCACGTGTGGGG | 0.09 kcal/mol
95 | TTGATCACGTGTTGGG | 0.16 kcal/mol
96 | CTCAGCACGTGGTGGT | -0.13 kcal/mol
97 | GCGATCACGTGGGGCG | 0.12 kcal/mol
98 | ATTTGCACGTGTAGCT | -0.11 kcal/mol
99 | TTTAACACGTGTTGTG | -0.07 kcal/mol
100 | GGCTTCACGTGATTGG | 0.32 kcal/mol
101 | GGTGGCACGTGTCATG | -0.06 kcal/mol
102 | GTTGTCACGTGAAAAG | 0.28 kcal/mol
103 | ACACGCACGTGGGTGG | -0.25 kcal/mol
104 | GTTTTCACGTGCTTGC | 0.27 kcal/mol
105 | AAGAGCACGTGTAGTG | -0.09 kcal/mol
106 | TGTTTCACGTGTAGAA | 0.34 kcal/mol
107 | TAGGTCACGTGTTAGT | 0.11 kcal/mol
108 | CGTTCCACGTGAGTGG | 0.21 kcal/mol
109 | TTTATCACGTGATGCT | 0.19 kcal/mol
110 | TTCATCACGTGGTAGG | 0.14 kcal/mol
111 | TCAAGCACGTGTGGGA | 0.07 kcal/mol
112 | TTGGGCACGTGGTCGA | -0.18 kcal/mol
113 | GGGTCCACGTGTGTAG | 0.02 kcal/mol
114 | TGGGGCACGTGAATTA | 0.13 kcal/mol
115 | GTTTGCACGTGGTAAT | 0.05 kcal/mol
